Data as given in the supplement of paper PMC10037445.
In all, about 2,900 compounds were measured (“IRF Lucia reporter activity, fold change vs agonist alone”: median about 0.9, highest 2% from about 2.8 on). The list shows a part of the results.

Experiments:
[1] = tested on: RAW-Dual; assay: IRF Lucia reporter activity, fold change vs agonist alone; cytotoxicity flag (confluency mask): not cytotoxic; higher = enhanced IRF activity
Summary of the method: (§1)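 Supernatant from RAW-Dual macrophages was read after 20 hours for IRF by QuantiLuc luminescence and for NF-κB by QuantiBlue absorbance at 620 nm. The cells (50,000 cells/well in DMEM, 384-well plates, 37 °C, 5% CO2) had received 50 nL of library stock by pin tool and, 1 h later, a PRR agonist. Reporter activity is expressed relative to agonist-alone wells as fold change, and wells were flagged cytotoxic if IncuCyte confluency was under 70% of agonist controls in both mask sets.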

[2] = tested on: RAW-Dual; assay: IRF Lucia reporter activity, fold change vs agonist alone; higher = enhanced IRF activity; details: library stock concentration (final ~1000-fold dilution): 10 mM; cytotoxicity flag (confluency mask): not cytotoxic; agonist: MPLA (TLR4) […]
Summary of the method: as §1

[3] = agonist: 3'3'-cGAMP (STING) 10 ug/mL

SMILES | IRF Lucia reporter activity [1, 3] | IRF Lucia reporter activity ([1]; agonist: LPS (TLR4) 0.1 ug/mL) | IRF Lucia reporter activity [2]
COc1ccc(CCC(=O)Nc2nc3ccc(Cl)cc3s2)cc1OC (library stock concentration (final ~1000-fold dilution): 10 mM) | 1.06 | 1.04 | –
COc1ccc(CCC(=O)Nc2nc3ccc(Cl)cc3s2)cc1OC | – | – | 1.09
CCN(CC)CCOCCOC(=O)C1(c2ccccc2)CCCC1 | – | – | 1.08
CCN(CC)CCOCCOC(=O)C1(c2ccccc2)CCCC1 (library stock concentration (final ~1000-fold dilution): 10 mM) | 0.82 | 1.24 | –
CCN(CC)C(=O)C1(c2ccccc2)CC1CN (centres undefined) (library stock concentration (final ~1000-fold dilution): 10 mM) | 1.04 | 0.8 | –
CCN(CC)C(=O)C1(c2ccccc2)CC1CN (centres undefined) | – | – | 1.02
CCC(C)C(=O)OC1CC(C)C=C2C=CC(C)C(CCC3CC(O)CC(=O)O3)C21 (centres undefined) (library stock concentration (final ~1000-fold dilution): 10 mM) | 0.497 | 0.764 | –
CCC(C)C(=O)OC1CC(C)C=C2C=CC(C)C(CCC3CC(O)CC(=O)O3)C21 (centres undefined) | – | – | 0.744
CN(C)CCCN1c2ccccc2CCc2ccc(Cl)cc21.Cl | – | – | 1.28
CN(C)CCCN1c2ccccc2CCc2ccc(Cl)cc21.Cl (library stock concentration (final ~1000-fold dilution): 10 mM) | 1.03 | 1.11 | –
COc1cc2nc(N3CCN(C(=O)C4COc5ccccc5O4)CC3)nc(N)c2cc1OC (centres undefined) (library stock concentration (final ~1000-fold dilution): 10 mM) | 0.355 | 1.73 | –
COc1cc2nc(N3CCN(C(=O)C4COc5ccccc5O4)CC3)nc(N)c2cc1OC (centres undefined) | – | – | 1.61
N#C/C(=C(/N)Sc1ccc(N)cc1)c1ccccc1C(F)(F)F | – | – | 2.5
N#C/C(=C(/N)Sc1ccc(N)cc1)c1ccccc1C(F)(F)F (library stock concentration (final ~1000-fold dilution): 10 mM) | 0.935 | 2.34 | –
FC(F)F.N=C(N)NCCCC1NC(=O)C(CCCCN)NC(=O)C(Cc2ccc(O)cc2)NC(=O)C(CC(=O)O)NC(=O)CNC1=O.O=C(O)C(F)(F)F.O=CO (centres undefined) (library stock concentration (final ~1000-fold dilution): 10 mM) | 1.13 | 0.737 | –
N=C(N)NCCCC(N)C(=O)NCC(=O)NC(CC(=O)O)C(=O)O (centres undefined) (library stock concentration (final ~1000-fold dilution): 10 mM water) | 1.31 | 0.942 | –
Cl.Fc1ccc(C2CCNCC2COc2ccc3c(c2)OCO3)cc1 (centres undefined) | – | – | 1.35
Cl.Fc1ccc(C2CCNCC2COc2ccc3c(c2)OCO3)cc1 (centres undefined) (library stock concentration (final ~1000-fold dilution): 10 mM) | 0.928 | 1.02 | –
CNC(=O)c1ccc(N2C(=S)N(c3ccc(C#N)c(C(F)(F)F)c3)C(=O)C2(C)C)cc1F (library stock concentration (final ~1000-fold dilution): 10 mM) | 1.02 | 1.32 | –
CNC(=O)c1ccc(N2C(=S)N(c3ccc(C#N)c(C(F)(F)F)c3)C(=O)C2(C)C)cc1F | – | – | 1.18
CCCc1ccc(OCC(=O)N(Cc2nc(-c3cccnc3)no2)C(C)C)cc1 (library stock concentration (final ~1000-fold dilution): 10 mM) | 1.16 | 1.41 | –
CCCc1ccc(OCC(=O)N(Cc2nc(-c3cccnc3)no2)C(C)C)cc1 | – | – | 1.21
COc1ccc2c(OC3CC4C(=O)NC5(C(=O)NS(=O)(=O)C6CC6)CC5/C=C\CCCCN(C)C(=O)C4C3)cc(-c3nc(C(C)C)cs3)nc2c1C (centres undefined) (library stock concentration (final ~1000-fold dilution): 10 mM) | 1.04 | 1.18 | –
COc1ccc2c(OC3CC4C(=O)NC5(C(=O)NS(=O)(=O)C6CC6)CC5/C=C\CCCCN(C)C(=O)C4C3)cc(-c3nc(C(C)C)cs3)nc2c1C (centres undefined) | – | – | 1.05
CC(C)(C)c1cc(NC(=O)Nc2ccc(-c3cn4c(n3)sc3cc(OCCN5CCOCC5)ccc34)cc2)no1 | – | – | 1.03
CC(C)(C)c1cc(NC(=O)Nc2ccc(-c3cn4c(n3)sc3cc(OCCN5CCOCC5)ccc34)cc2)no1 (library stock concentration (final ~1000-fold dilution): 10 mM) | 0.0722 | 1.33 | –
CN1CCN(c2ccc(-c3cccc(CN4CCOCC4)c3)cc2NC(=O)c2c[nH]c(=O)cc2C(F)(F)F)CC1 (library stock concentration (final ~1000-fold dilution): 10 mM) | 1.01 | 1.1 | –
OCC1OC(O)CC(O)C1O (centres undefined) (library stock concentration (final ~1000-fold dilution): 10 mM) | 1.07 | 0.844 | –
